Results published in US5635593A (priority 1995, dated 1997).
“Also recorded” adds a separate entry of the source. Part of at least one peptide drawing is inferred or uncertain, most often the ends. Peptide text beside a SMILES is read from it.

Legend:
[1] = test system: μ-opioid receptor; test: guinea pig ileum assay of μ-opioid receptor activity; settings: agonist activity
[2] = target: T1, BK2 -receptor (Rattus norvegicus, UniProt P25023); test: rat uterus (RU) in vitro, antagonism of BK; settings: against BK
T1 construct: guinea-pig ileum (GPI), rat uterus (RU) and rabbit jugular vein (RJV); from tissue; host or cells: rat uterus
T1 sequence (P25023 1-396): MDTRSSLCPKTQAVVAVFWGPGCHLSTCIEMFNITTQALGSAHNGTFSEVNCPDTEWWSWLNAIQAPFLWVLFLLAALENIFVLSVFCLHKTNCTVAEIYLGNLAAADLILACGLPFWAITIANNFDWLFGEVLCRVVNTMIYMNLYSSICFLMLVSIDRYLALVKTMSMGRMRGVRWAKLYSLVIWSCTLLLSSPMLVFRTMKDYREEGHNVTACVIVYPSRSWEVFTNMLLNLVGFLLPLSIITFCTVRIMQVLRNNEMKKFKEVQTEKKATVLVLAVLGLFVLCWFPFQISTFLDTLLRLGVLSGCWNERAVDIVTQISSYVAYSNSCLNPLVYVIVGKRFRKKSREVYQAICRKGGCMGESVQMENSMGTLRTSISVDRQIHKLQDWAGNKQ
Method: Thus, in vitro studies were performed on standard assay systems, namely, guinea-pig ileum (GPI), rat uterus (RU) and rabbit jugular vein (RJV). […] The potency of each compound was assessed as a pA2 value according to the method of Arunlakshana & Schild, Br. J. Pharmacol. Chemother., 14:48-58 (1959). The pA2 can be defined as the negative logarithm of the molar concentration of the antagonist in the presence of which the potency of the agonist is reduced two-fold, i.e., twice the amount of agonist is required to produce a given response in the presence of, than in the absence of, the antagonist. A high potency of antagonism is indicated by a high pA2 value. i.e., a low concentration of antagonist is effective.
The percentage recovery (% Rec) was also determined for compounds with respect to each assay.
With respect to duration of activity, it is noted that after exposure to the highest concentration of antagonist, each tissue was washed extensively and then assessed for recovery from the antagonist effect.
Potency in the rat uterus assay was assessed as described above and pA2 values determined.

[3] = target: T2, BK2 receptor (Oryctolagus cuniculus, UniProt Q28642); test: blood pressure response to BK2 agonist in LPS-pretreated rabbits; format: in vivo, rabbit; design: key: +: complete blockade of the blood pressure response to the appropriate agonist; ±: partial blockade; -: no observable effect at the dose indicated; settings: rabbits given LPS (10 μg) 20 hours before
T2 construct: from tissue; host or cells: whole animal (rabbit, LPS-pretreated), blood pressure response
T2 sequence (Q28642 1-367): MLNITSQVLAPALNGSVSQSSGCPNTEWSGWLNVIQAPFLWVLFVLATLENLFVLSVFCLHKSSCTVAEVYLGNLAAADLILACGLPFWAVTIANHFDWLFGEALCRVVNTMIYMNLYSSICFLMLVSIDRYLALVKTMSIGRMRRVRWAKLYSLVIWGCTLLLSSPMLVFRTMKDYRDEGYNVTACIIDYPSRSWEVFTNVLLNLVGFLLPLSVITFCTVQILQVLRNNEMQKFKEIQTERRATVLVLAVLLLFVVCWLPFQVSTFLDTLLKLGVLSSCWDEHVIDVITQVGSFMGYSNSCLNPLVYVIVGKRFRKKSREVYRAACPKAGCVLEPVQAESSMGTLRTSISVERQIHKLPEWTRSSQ
Description: (§1) That heterodimeric constructs block the activities attributable to two different receptor populations simultaneously when administered to an intact animal has been known using a standard assay of BK2 and BK1 receptor activity (see, deBlois, Bouthillier, and Marceau, Brit. J. Pharm., 103, 1057-1066, 1991). In normal rabbits, no changes in systemic arterial blood pressure can be detected in response to challenges with BK1 receptor agonists. There is, however, a predictable and reproducible response to BK2 agonists constituatively present. After stimulation with LPS BK1 receptor activity will develop over time such that profound responses to doses of BK1 agonists that were previously inconsequential in nature are observed after a 3-4 hour period. Responses to BK2 agonists are unchanged in these animals. At this point, one can test directly the ability to block both BK1 and BK2 mediated reductions in systemic blood pressure simultaneously with a heterodimeric antagonist.
(§2) FIGS. 8a, b and c comprise actual blood pressure traces from a series of experiments designed to illustrate the ability of a representative heterodimer (CP-0364) to block both BK1 - and BK2 - mediated hypotensive responses simultaneously.
(§3) The expected antagonist activity is based on the data summarized in Tables K and L. The in vivo experimental data reported are qualitative measurements of antagonist activity at three different doses (1, 3 and 10 μg kg^-1 min^-1) in rabbits given a sub-lethal dose of LPS (10 μg), 20 hours before initiation of the experiment.

[4] = target: T3, BK1 receptor (Oryctolagus cuniculus, UniProt P48748); test: blood pressure response to BK1 agonist in LPS-pretreated rabbits; format: in vivo, rabbit; design: from tissue; host or cells: whole animal (rabbit, LPS-pretreated), blood pressure response; key: +: complete blockade of the blood pressure response to the appropriate agonist; ±: partial blockade; -: no observable effect at the dose indicated; settings: rabbits given LPS (10 μg) 20 hours before; for observed antagonist activity BK1, 1: 1 μg kg^-1 min^-1; for observed antagonist activity BK1, 3: 3 μg kg^-1 min^-1; for observed antagonist activity BK1, 10: 10 μg kg^-1 min^-1
T3 sequence (P48748 1-352): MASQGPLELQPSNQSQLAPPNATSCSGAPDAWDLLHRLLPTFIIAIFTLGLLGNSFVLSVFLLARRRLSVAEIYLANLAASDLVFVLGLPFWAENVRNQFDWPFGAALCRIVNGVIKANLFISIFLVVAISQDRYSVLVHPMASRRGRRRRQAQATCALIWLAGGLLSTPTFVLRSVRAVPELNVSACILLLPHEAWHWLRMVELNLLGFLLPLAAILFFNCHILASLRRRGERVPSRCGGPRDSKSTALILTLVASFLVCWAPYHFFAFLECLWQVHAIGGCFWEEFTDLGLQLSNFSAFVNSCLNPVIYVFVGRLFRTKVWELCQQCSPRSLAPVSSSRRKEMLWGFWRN
Description: as §1, §2, §3

[5] = test system: BK-induced vascular permeability; test: rabbit skin vascular permeability; format: in vivo; settings: antagonist injected 15 or 30 minutes before BK in the same site
[6] = test system: blood pressure responses to BK; settings: rat, in vivo
[7] = test system: LPS-induced hypotension; test: LPS-induced hypotension in the anesthetized rat (septic shock model); format: in vivo; settings: 18 nmol/kg/min i.v. before, during and after LPS 15 mg kg^-1
[8] = test system: pain response to BK; test: pain response to intra-arterial BK in conscious rats; format: in vivo, rat; settings: 3.6 μmol kg^-1 s.c.

Compound	μ-OPIOID GUINEA PIG ILEUM IC50 [1]	pA2 rat uterus (BK2) [2]	observed antagonist activity BK2, 1 ([3]; 1 μg kg^-1 min^-1)	observed antagonist activity BK2, 3 ([3]; 3 μg kg^-1 min^-1)	observed antagonist activity BK2, 10 ([3]; 10 μg kg^-1 min^-1)	observed antagonist activity BK1, 1 [4]	observed antagonist activity BK1, 3 [4]	observed antagonist activity BK1, 10 [4]	inhibition of BK vascular permeability, pre-injected [5]	inhibition of blood pressure responses to BK ([6]; iv)	time to full recovery of BK responses after stopping the infusion ([6]; iv)	blood pressure response to BK (ED50) after single s.c. dose ([6]; sc)	duration of block of BK responses ([6]; sc)	effect on LPS-induced drop in mean arterial blood pressure [7]	duration of inhibition of pain response [8]	pain response to intra-arterial BK 20 nmoles kg^-1 ([8]; conscious rat)
C[C@@H](NC(=O)[C@@H](N)Cc1ccc(O)cc1)C(=O)NCC(=O)N[C@@H](Cc1ccccc1)C(=O)N[C@@H](CS)C(N)=O [CO-0003, Y--(D A)--G--F--C--CONH2] (HELM PEPTIDE1{Y.[dA].G.F.C.[am]}$$$$V2.0)	6.8 ± 0.2															
CC(C)C[C@H](NC(=O)[C@@H](Cc1ccccc1)NC(=O)[C@H](CO)NC(=O)[C@H](Cc1ccccc1)NC(=O)CNC(=O)[C@@H]1C[C@@H](O)CN1C(=O)[C@@H]1CCCN1C(=O)[C@H](CCCNC(=N)N)NC(=O)[C@H](N)CCCNC(=N)N)C(=O)N[C@@H](CCCNC(=N)N)C(=O)O [CP-0088, DARG^0 -Arg^1 -Pro^2 -Hyp^3 -Gly^4 -Phe^5 -Ser^6 -(D)Phe^7 -Leu^8 -Arg^9, reference compound] (HELM PEPTIDE1{[dR].R.P.[Hyp].G.F.S.[dF].L.R}$$$$V2.0)		7.4	+	+	+	-	-	-								
CC(C)C[C@H](NC(=O)[C@@H](Cc1ccccc1)NC(=O)[C@H](CSC1CC(=O)N(CCCCCCN2C(=O)CC(SC[C@H](NC(=O)[C@H](Cc3ccccc3)NC(=O)CNC(=O)[C@@H]3C[C@@H](O)CN3C(=O)[C@@H]3CCCN3C(=O)[C@H](CCCNC(=N)N)NC(=O)[C@H](N)CCCNC(=N)N)C(=O)N[C@H](Cc3ccccc3)C(=O)N[C@@H](CC(C)C)C(=O)N[C@@H](CCCNC(=N)N)C(=O)O)C2=O)C1=O)NC(=O)[C@H](Cc1ccccc1)NC(=O)CNC(=O)[C@@H]1C[C@@H](O)CN1C(=O)[C@@H]1CCCN1C(=O)[C@H](CCCNC(=N)N)NC(=O)[C@H](N)CCCNC(=N)N)C(=O)N[C@@H](CCCNC(=N)N)C(=O)O (stereo partly shown) [CP-0127] (HELM PEPTIDE1{[dR].R.P.[Hyp].G.F.C.[dF].L.R}|PEPTIDE2{[dR].R.P.[Hyp].G.F.C.[dF].L.R}|CHEM1{[O=C1CC([*:1])C(=O)N1CCCCCCN1C(=O)CC([*:2])C1=O]}$PEPTIDE1,CHEM1,7:R3-1:R1|PEPTIDE2,CHEM1,7:R3-1:R2$$$V2.0)						-	-	-	totally inhibited	almost totally inhibited	approximately 20 minutes	totally blocked	at least 2 hours	significant attenuation; also recorded: totally reversed	approximately 2 hours	totally abolished
